Test results taken from the supplement of paper PMC11741623.
Some of the results follow. Interaction screen of human proteins with wild-type SARS-CoV-2 proteins by split-DHFR complementation in yeast, 1 µg/mL methotrexate. Value = fitness of the pair (three or more lineages) minus that of the viral protein without a human partner, on a scale set by negative (0) and fused positive (1) controls, mean of up to three cultures; higher = more likely to interact. Active = false discovery rate below 0.05 (one-sided t-test) in at least one culture. Nearly all pairs are not hits, and differences among them are mostly noise (correlation between cultures about 0.3); most hits were seen in one culture only. Human sequences are the Swiss-Prot entries looked up by gene name; the clone may be another isoform. NSP2 values were corrected by the authors for a growth advantage. Listed are human proteins with a hit and a random twelfth of the others.

B1: MFAP3L, O75121 (protein)
chain: MDRLKSHLTVCFLPSVPFLILVSTLATAKSVTNSTLNGTNVVLGSVPVIIARTDHIIVKEGNSALINCSVYGIPDPQFKWYNSIGKLLKEEEDEKERGGGKWQMHDSGLLNITKVSFSDRGKYTCVASNIYGTVNNTVTLRVIFTSGDMGVYYMVVCLVAFTIVMVLNITRLCMMSSHLKKTEKAINEFFRTEGAEKLQKAFEIAKRIPIITSAKTLELAKVTQFKTMEFARYIEELARSVPLPPLIMNCRTIMEEIMEVVGLEEQGQNFVRHTPEGQEAADRDEVYTIPNSLKRSDSPAADSDASSLHEQPQQIAIKVSVHPQSKKEHADDQEGGQFEVKDVEETELSAEHSPETAEPSTDVTSTELTSEEPTPVEVPDKVLPPAYLEATEPAVTHDKNTCIIYESHV
B2: APLN, Q9ULZ1 (protein)
chain: MNLRLCVQALLLLWLSLTAVCGGSLMPLPDGNGLEDGNVRHLVQPRGSRNGPGPWQGGRRKFRRQRPRLSHKGPMPF
B3: RPH3AL, Q9UNE2 (protein)
chain: MADTIFGSGNDQWVCPNDRQLALRAKLQTGWSVHTYQTEKQRRKQHLSPAEVEAILQVIQRAERLDVLEQQRIGRLVERLETMRRNVMGNGLSQCLLCGEVLGFLGSSSVFCKDCRKKVCTKCGIEASPGQKRPLWLCKICSEQREVWKRSGAWFYKGLPKYILPLKTPGRADDPHFRPLPTEPAEREPRSSETSRIYTWARGRVVSSDSDSDSDLSSSSLEDRLPSTGVRDRKGDKPWKESGGSVEAPRMGFTHPPGHLSGCQSSLASGETGTGSADPPGGPRPGLTRRAPVKDTPGRAPAADAAPAGPSSCLG
B4: TCF7L1, Q9HCS4 (protein)
chain: MPQLGGGGGGGGGGSGGGGGSSAGAAGGGDDLGANDELIPFQDEGGEEQEPSSDSASAQRDLDEVKSSLVNESENQSSSSDSEAERRPQPVRDTFQKPRDYFAEVRRPQDSAFFKGPPYPGYPFLMIPDLSSPYLSNGPLSPGGARTYLQMKWPLLDVPSSATVKDTRSPSPAHLSNKVPVVQHPHHMHPLTPLITYSNDHFSPGSPPTHLSPEIDPKTGIPRPPHPSELSPYYPLSPGAVGQIPHPLGWLVPQQGQPMYSLPPGGFRHPYPALAMNASMSSLVSSRFSPHMVAPAHPGLPTSGIPHPAIVSPIVKQEPAPPSLSPAVSVKSPVTVKKEEEKKPHVKKPLNAFMLYMKEMRAKVVAECTLKESAAINQILGRKWHNLSREEQAKYYELARKERQLHSQLYPTWSARDNYGKKKKRKREKQLSQTQSQQQVQEAEGALASKSKKPCVQYLPPEKPCDSPASSHGSMLDSPATPSAALASPAAPAATHSEQAQPLSLTTKPETRAQLALHSAAFLSAKAAASSSGQMGSQPPLLSRPLPLGSMPTALLASPPSFPATLHAHQALPVLQAQPLSLVTKSAH
B5: BCKDHB, P21953 (protein)
chain: MAVVAAAAGWLLRLRAAGAEGHWRRLPGAGLARGFLHPAATVEDAAQRRQVAHFTFQPDPEPREYGQTQKMNLFQSVTSALDNSLAKDPTAVIFGEDVAFGGVFRCTVGLRDKYGKDRVFNTPLCEQGIVGFGIGIAVTGATAIAEIQFADYIFPAFDQIVNEAAKYRYRSGDLFNCGSLTIRSPWGCVGHGALYHSQSPEAFFAHCPGIKVVIPRSPFQAKGLLLSCIEDKNPCIFFEPKILYRAAAEEVPIEPYNIPLSQAEVIQEGSDVTLVAWGTQVHVIREVASMAKEKLGVSCEVIDLRTIIPWDVDTICKSVIKTGRLLISHEAPLTGGFASEISSTVQEECFLNLEAPISRVCGYDTPFPHIFEPFYIPDKWKCYDALRKMINY
B6: C1QTNF9B, B2RNN3 (protein)
chain: MRIWWLLLAIEICTGNINSQDTCRQGHPGIPGNPGHNGLPGRDGRDGAKGDKGDAGEPGCPGSPGKDGTSGEKGERGADGKVEAKGIKGDQGSRGSPGKHGPKGLAGPMGEKGLRGETGPQGQKGNKGDVGPTGPEGPRGNIGPLGPTGLPGPMGPIGKPGPKGEAGPTGPQGEPGVRGIRGWKGDRGEKGKIGETLVLPKSAFTVGLTVLSKFPSSDVPIKFDKILYNEFNHYDTAVGKFTCHIAGVYYFTYHITVFSRNVQVSLVKNGVKILHTRDAYVSSEDQASGSIVLQLKLGDEMWLQVTGGERFNGLFADEDDDTTFTGFLLFSSQ
B7: GBP5, Q96PP8 (protein)
chain: MALEIHMSDPMCLIENFNEQLKVNQEALEILSAITQPVVVVAIVGLYRTGKSYLMNKLAGKNKGFSVASTVQSHTKGIWIWCVPHPNWPNHTLVLLDTEGLGDVEKADNKNDIQIFALALLLSSTFVYNTVNKIDQGAIDLLHNVTELTDLLKARNSPDLDRVEDPADSASFFPDLVWTLRDFCLGLEIDGQLVTPDEYLENSLRPKQGSDQRVQNFNLPRLCIQKFFPKKKCFIFDLPAHQKKLAQLETLPDDELEPEFVQQVTEFCSYIFSHSMTKTLPGGIMVNGSRLKNLVLTYVNAISSGDLPCIENAVLALAQRENSAAVQKAIAHYDQQMGQKVQLPMETLQELLDLHRTSEREAIEVFMKNSFKDVDQSFQKELETLLDAKQNDICKRNLEASSDYCSALLKDIFGPLEEAVKQGIYSKPGGHNLFIQKTEELKAKYYREPRKGIQAEEVLQKYLKSKESVSHAILQTDQALTETEKKKKEAQVKAEAEKAEAQRLAAIQRQNEQMMQERERLHQEQVRQMEIAKQNWLAEQQKMQEQQMQEQAAQLSTTFQAQNRSLLSELQHAQRTVNNDDPCVLL
B8: HSD17B14, Q9BPX1 (protein)
chain: MATGTRYAGKVVVVTGGGRGIGAGIVRAFVNSGARVVICDKDESGGRALEQELPGAVFILCDVTQEDDVKTLVSETIRRFGRLDCVVNNAGHHPPPQRPEETSAQGFRQLLELNLLGTYTLTKLALPYLRKSQGNVINISSLVGAIGQAQAVPYVATKGAVTAMTKALALDESPYGVRVNCISPGNIWTPLWEELAALMPDPRATIREGMLAQPLGRMGQPAEVGAAAVFLASEANFCTGIELLVTGGAELGYGCKASRSTPVDAPDIPS
B9: PANK3, Q9H999 (protein)
chain: MKIKDAKKPSFPWFGMDIGGTLVKLSYFEPIDITAEEEQEEVESLKSIRKYLTSNVAYGSTGIRDVHLELKDLTLFGRRGNLHFIRFPTQDLPTFIQMGRDKNFSTLQTVLCATGGGAYKFEKDFRTIGNLHLHKLDELDCLVKGLLYIDSVSFNGQAECYYFANASEPERCQKMPFNLDDPYPLLVVNIGSGVSILAVHSKDNYKRVTGTSLGGGTFLGLCSLLTGCESFEEALEMASKGDSTQADKLVRDIYGGDYERFGLPGWAVASSFGNMIYKEKRESVSKEDLARATLVTITNNIGSVARMCAVNEKINRVVFVGNFLRVNTLSMKLLAYALDYWSKGQLKALFLEHEGYFGAVGALLGLPNFS
B10: S100A8, P05109 (protein)
chain: MLTELEKALNSIIDVYHKYSLIKGNFHAVYRDDLKKLLETECPQYIRKKGADVWFKELDINTDGAVNFQEFLILVIKMGVAAHKKSHEESHKE
B11: TADA2A, O75478 (protein)
chain: MDRLGPFSNDPSDKPPCRGCSSYLMEPYIKCAECGPPPFFLCLQCFTRGFEYKKHQSDHTYEIMTSDFPVLDPSWTAQEEMALLEAVMDCGFGNWQDVANQMCTKTKEECEKHYMKHFINNPLFASTLLNLKQAEEAKTADTAIPFHSTDDPPRPTFDSLLSRDMAGYMPARADFIEEFDNYAEWDLRDIDFVEDDSDILHALKMAVVDIYHSRLKERQRRKKIIRDHGLINLRKFQLMERRYPKEVQDLYETMRRFARIVGPVEHDKFIESHALEFELRREIKRLQEYRTAGITNFCSARTYDHLKKTREEERLKRTMLSEVLQYIQDSSACQQWLRRQADIDSGLSPSIPMASNSGRRSAPPLNLTGLPGTEKLNEKEKELCQMVRLVPGAYLEYKSALLNECNKQGGLRLAQARALIKIDVNKTRKIYDFLIREGYITKG

Target: SARS-CoV-2 NSP10
Assay: yeast fitness gain over the viral ORF with no human partner (scaled fitness); higher = more likely to interact
Description: (§1)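 Split mouse DHFR complementation in pooled diploid yeast: human ORFeome clones carry one fragment and viral ORFs the other; barcoded lineages compete in 1 µg/mL methotrexate and fitness is read by barcode sequencing in up to three cultures.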

Binder	yeast fitness gain
B1	inactive: -0.045
B2	inactive: 0.00548
B3	inactive: 0.0138
B4	inactive: -0.0674
B5	inactive: -0.225
B6	inactive: -0.0636
B7	inactive: -0.0569
B8	inactive: -0.128
B9	inactive: -0.138
B10	inactive: -0.0674
B11	inactive: -0.297

Target: SARS-CoV-2 NSP13
Assay: as above
Description: as §1

Binder	yeast fitness gain
B1	inactive: -0.178
B3	inactive: -0.0503
B7	inactive: -0.105
B8	inactive: 0.0831
B9	inactive: -0.0118
B10	inactive: -0.0173
B11	inactive: -0.201

Target: SARS-CoV-2 ORF6
Assay: as above
Description: as §1

Binder	yeast fitness gain
B1	inactive: 0.089
B3	inactive: 0.0506
B4	inactive: -0.0625
B7	inactive: 0.0546
B9	inactive: 0.0146
B10	inactive: 0.0281

Target: SARS-CoV-2 NSP2
Assay: as above
Description: as §1

Binder	yeast fitness gain
B2	inactive: -0.178
B4	inactive: -0.215
B6	inactive: -0.198
B7	inactive: -0.261
B9	inactive: -0.103
B10	inactive: -0.112
B11	inactive: -0.0508

Target: SARS-CoV-2 ORF7B
Assay: as above
Description: as §1

Binder	yeast fitness gain
B2	inactive: -0.159
B3	inactive: -0.0179
B7	inactive: -0.297
B9	inactive: 0.00443
B10	inactive: -0.0182

Target: SARS-CoV-2 ORF9B
Assay: as above
Description: as §1

Binder	yeast fitness gain
B2	inactive: -9.2e-05
B3	inactive: 0.0044
B6	inactive: -0.0454
B7	inactive: 0.0485
B8	inactive: 0.0197
B9	inactive: -0.0487
B10	inactive: -0.0874
B11	inactive: -0.0111

Target: SARS-CoV-2 NSP12
Assay: as above
Description: as §1

Binder	yeast fitness gain
B3	inactive: 0.0562
B6	inactive: -0.0612
B7	inactive: -0.0657
B9	inactive: 0.00513
B10	inactive: 0.091
B11	inactive: -0.00571

Target: SARS-CoV-2 NSP5
Assay: as above
Description: as §1

Binder	yeast fitness gain
B3	inactive: -0.129
B7	inactive: 0.0414
B10	inactive: -0.12

Target: SARS-CoV-2 NSP6
Assay: as above
Description: as §1

Binder	yeast fitness gain
B3	inactive: 0.178
B7	inactive: 0.027
B10	inactive: 0.083

Target: SARS-CoV-2 NSP8
Assay: as above
Description: as §1

Binder	yeast fitness gain
B3	inactive: -0.0775
B7	inactive: 0.0187
B8	inactive: -0.00829
B10	inactive: 0.0239

Target: SARS-CoV-2 ORF3B
Assay: as above
Description: as §1

Binder	yeast fitness gain
B3	inactive: -0.0397
B5	inactive: -0.0241
B7	inactive: 0.0141
B9	inactive: 0.0212
B10	inactive: -0.0627
B11	inactive: -0.0705

Target: SARS-CoV-2 ORF8
Assay: as above
Description: as §1

Binder	yeast fitness gain
B3	inactive: -0.167
B5	inactive: 0.0972
B7	inactive: -0.242
B8	inactive: -0.0981
B9	inactive: -0.121
B10	inactive: 0.0829

Target: SARS-CoV-2 ORF7A
Assay: as above
Description: as §1

Binder	yeast fitness gain
B4	inactive: -0.182
B7	inactive: 0.0125
B9	inactive: 0.052

Target: SARS-CoV-2 NSP15
Assay: as above
Description: as §1

Binder	yeast fitness gain
B7	inactive: 0.00236
B9	inactive: 0.0342

Target: SARS-CoV-2 NSP7
Assay: as above
Description: as §1

Binder	yeast fitness gain
B7	inactive: -0.0309
B10	inactive: 0.0519

Target: SARS-CoV-2 ORF10
Assay: as above
Description: as §1

Binder	yeast fitness gain
B7	inactive: -0.0731
B8	inactive: -0.0519
B9	inactive: 0.0588

Target: SARS-CoV-2 ORF3A
Assay: as above
Description: as §1

Binder	yeast fitness gain
B7	inactive: -0.0882

Target: SARS-CoV-2 ORF9Bwu (the 73-codon ORF)
Assay: as above
Description: as §1

Binder	yeast fitness gain
B7	inactive: -0.0313
B10	inactive: -0.0462

Target: SARS-CoV-2 S
Assay: as above
Description: as §1

Binder	yeast fitness gain
B7	inactive: -0.092
B9	inactive: 0.0881
B10	inactive: -0.0973

Target: SARS-CoV-2 NSP16
Assay: as above
Description: as §1

Binder	yeast fitness gain
B10	inactive: 0.0149
